Reference: PubChem BioAssay (NCATS)
The inconclusive results got no clear call from the source; some entries with a clear call stand among them for comparison. For some assays here: Potencies of inconclusive entries are left out as doubtful fits. Active and inactive are the calls of the source. Calls follow the shape of the dose curve; as a rule, active = well fitted curve in the direction sought with a large enough effect; inconclusive = small, poorly fitted or top-dose-only effect, or another doubt; inactive = no such curve, though single readings can be large; an effect the other way counts as inactive or inconclusive. Bridge positions count the residues as written; N and C are the ends. Square brackets hold non-standard residues; d marks the D form. Peptide text beside a SMILES is read from it. * marks the point of attachment. ξ: configuration not given here. Octanoyl(6-Me) = CCC(C)CCCCC(=O)*; ξThr(3R) = C[C@@H](O)C(N)C(=O)O; dDab = NCC[C@@H](N)C(=O)O; Dab = NCC[C@H](N)C(=O)O

What was measured:
[1] = molecular target: Glutathione peroxidase 1 (Homo sapiens) (UniProt P07203); experiment: Primary qHTS Assay for Inhibitors of Recombinant Selenoprotein Glutathione Peroxidase 1 (GPX1) (AID 1845191); details: activity, negative = inhibition: at 48.8 µM (top of the series); also: nearly all actives have a fitted effect of over 65% in size; also: potency is read from the fitted curve at half-maximal effect; as to activity, negative = inhibition: % is scaled to controls: 0 for no effect and ±100 for the full control effect
Summary of the method: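 10 nM GPX1 + cpd, 30 min RT; start w/ 1 mM GSH, 0.5 mM cumene hydroperoxide, 0.5 mM NADPH, 100 nM GR, 0.01% BSA; buffer 50 mM Tris-HCl pH 7.5, 2 mM EDTA, 150 mM NaCl; Fl 340/450, 0 & 15 min.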

[2] = Quantitative High-Throughput drug screen in 47 multiple myeloma cell lines against the NCATS MIPE library collection: Delta47_JCRB cell viability assay (AID 1918925; also: potency is read from the fitted curve at half-maximal effect; nearly all actives have a fitted effect of over 45% in size); details: Delta47 myeloma viability, CellTiter-Glo ATP, 48 h; viability (% of DMSO): at 45.8 µM (top of the series) unless noted
Summary of the method: (§1)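 Primary qHTS used for cherry-picking: cells at 500/well, library compounds for 48 h (37C, 5% CO2), luminescent ATP assay.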

[3] = Quantitative High-Throughput drug screen in 47 multiple myeloma cell lines against the NCATS MIPE library collection: ARP1_JJKsccF8 cell viability assay (AID 1918928; also: nearly all actives have a fitted effect of over 40% in size; also: potency is read from the fitted curve at half-maximal effect); details: ARP1 myeloma cells viability, CellTiter-Glo ATP, 48 h; viability: at 45.8 µM (top of the series)
Summary of the method: (§2)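 Myeloma cells, 500 per well, were exposed to MIPE 4.0 drugs by pin transfer for 48 h at 37 °C, 5% CO2. Viability was read as ATP luminescence with CellTiter-Glo, normalised to DMSO-only (100%) and medium-only (0%) wells.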

[4] = Quantitative High-Throughput drug screen in 47 multiple myeloma cell lines against the NCATS MIPE library collection: ARD_JJKsccE7 cell viability assay (AID 1918929; also: potency is read from the fitted curve at half-maximal effect)
Summary of the method: as §1

[5] = Quantitative High-Throughput drug screen in 47 multiple myeloma cell lines against the NCATS MIPE library collection: Karpas620_DSMZ cell viability assay (AID 1918959); also: nearly all actives have a fitted effect of over 30% in size; also: potency is read from the fitted curve at half-maximal effect
Summary of the method: (§3)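 Luminescent ATP measurement with CellTiter-Glo gives viability, scaled between DMSO-only wells (100%) and media-only wells (0%). Cells, 500 per well, faced library compounds for 48 hours at 37C.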

[6] = Quantitative High-Throughput drug screen in 47 multiple myeloma cell lines against the NCATS MIPE library collection: KMM1_JCRB cell viability assay (AID 1918960); details: KMM1 myeloma viability, CellTiter-Glo ATP luminescence, 48 h; viability (% of DMSO): at 45.8 µM (top of the series); also: nearly all actives have a fitted effect of over 30% in size; also: potency is read from the fitted curve at half-maximal effect
Summary of the method: as §2

[7] = Quantitative High-Throughput drug screen in 47 multiple myeloma cell lines against the NCATS MIPE library collection: Karpas417_ECACC cell viability assay (AID 1918961); details: Karpas417 myeloma viability, CellTiter-Glo ATP luminescence, 48 h; viability (% of DMSO): at 45.8 µM (top of the series) unless noted; also: potency is read from the fitted curve at half-maximal effect
Summary of the method: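 Steps: seed 500 cells per well; pin-transfer MIPE 4.0 library; incubate 48 h at 37C, 5% CO2, humidified; add CellTiter-Glo, 5 min room temperature; read luminescence.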

[8] = Quantitative High-Throughput drug screen in 47 multiple myeloma cell lines against the NCATS MIPE library collection: KHM11_PLB cell viability assay (AID 1918962); details: KHM11 myeloma cell viability, CellTiter-Glo ATP luminescence, 48 h; viability, % of DMSO control: at 45.8 µM (top of the series); also: nearly all actives have a fitted effect of over 35% in size; also: potency is read from the fitted curve at half-maximal effect
Summary of the method: as §3

[9] = molecular target: Phospholipid hydroperoxide glutathione peroxidase GPX4 (Homo sapiens) (UniProt P36969); experiment: Primary qHTS Assay for Inhibitors of Recombinant Selenoprotein Glutathione Peroxidase 4 (GPX4) (AID 1845192); also: potency is read from the fitted curve at half-maximal effect; nearly all actives have a fitted effect of over 65% in size
Summary of the method: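 NADPH consumption, followed by fluorescence at 340/450 nm between 0 and 15 min, reports GPX4 activity via coupled glutathione reductase (100 nM). Enzyme 200 nM was pre-exposed to compound 30 min; 0.5 mM cumene hydroperoxide and 1 mM GSH served as substrates.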

[10] = Primary fluorescence-based thiol-reactive (MSTI) qHTS assay for identification of artifact compounds. (AID 1845221);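 also: thiol-reactive compounds lower the probe fluorescence signal; nearly all actives have a fitted effect of over 65% in size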
Summary of the method: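 MSTI probe at 4 uM final in 2% DMSO/PBS pH 7.4; compounds, 1 h at room temperature in dark. Fluorescence Ex/Em 525/598 nm, normalised to Acetyl-MSTI and MSTI, fitted to 4-parameter Hill.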

[11] = Quantitative High-Throughput drug screen in 47 multiple myeloma cell lines against the NCATS MIPE library collection: FR4_PLB cell viability assay (AID 1918924; also: nearly all actives have a fitted effect of over 35% in size; also: potency is read from the fitted curve at half-maximal effect); details: FR4_PLB myeloma cells viability, CellTiter-Glo ATP, 48 h; viability (% of DMSO control): at 45.8 µM (top of the series)
Summary of the method: as §3

[12] = Quantitative High-Throughput drug screen in 47 multiple myeloma cell lines against the NCATS MIPE library collection: EJM_DSMZ cell viability assay (AID 1918926; also: nearly all actives have a fitted effect of over 30% in size; also: potency is read from the fitted curve at half-maximal effect); details: EJM myeloma cell viability, CellTiter-Glo ATP, 48 h; viability, % of control: at 45.8 µM (top of the series)
Summary of the method: as §1

[13] = Quantitative High-Throughput drug screen in 47 multiple myeloma cell lines against the NCATS MIPE library collection: AMO1_DSMZ cell viability assay (AID 1918927; also: nearly all actives have a fitted effect of over 30% in size; also: potency is read from the fitted curve at half-maximal effect)
Summary of the method: as §1
Tags tell the direction and shape of the fitted curve.

Chain of UniProt P07203 (P07203 whole entry, looked up): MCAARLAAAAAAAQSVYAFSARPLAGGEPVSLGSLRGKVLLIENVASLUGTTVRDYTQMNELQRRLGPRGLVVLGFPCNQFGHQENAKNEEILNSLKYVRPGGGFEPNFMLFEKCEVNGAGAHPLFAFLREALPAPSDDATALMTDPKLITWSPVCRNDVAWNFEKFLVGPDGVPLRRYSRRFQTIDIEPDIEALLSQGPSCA
Chain of UniProt P36969 (P36969 whole entry, looked up): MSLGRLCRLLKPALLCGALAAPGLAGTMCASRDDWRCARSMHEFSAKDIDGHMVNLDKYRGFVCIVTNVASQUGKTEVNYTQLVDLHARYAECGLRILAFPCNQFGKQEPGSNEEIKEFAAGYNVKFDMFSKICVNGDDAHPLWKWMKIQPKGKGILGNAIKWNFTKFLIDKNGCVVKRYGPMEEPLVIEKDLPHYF

| SMILES | Potency [1] | Potency [2] | Potency [3] | Potency [4] | Potency [5] | Potency [6] | viability (% of DMSO) [7] | Potency [8] | Potency [9] | Potency [10] | Potency [11] | Potency [12] | Potency [7] | Potency [13] | activity, negative = inhibition [1] |
| --- | --- | --- | --- | --- | --- | --- | --- | --- | --- | --- | --- | --- | --- | --- | --- |
| COc1cc(C(C)C)c(Oc2cnc(NC(CO)CO)nc2N)cc1I | inconclusive [inhibitor, single point] | inconclusive [cytotoxic, full curve, poor fit] | inactive | inconclusive [cytotoxic, partial curve, poor fit] | inconclusive [cytotoxic, single point] | inconclusive [cytotoxic, partial curve] | inconclusive: 49.1% [cytotoxic] | inactive | – | – | – | – | – | – | – |
| NS(=O)(=O)c1ccc(Nc2nc(OCC3CCCCC3)c3[nH]cnc3n2)cc1 | – | – | inconclusive [cytotoxic, single point] | – | inconclusive [cytotoxic, single point] | active: 18.7 µM | – | – | inconclusive [inhibitor, single point] | inactive | inconclusive [cytotoxic, single point] | active: 23.5 µM | active: 14.8 µM | – | – |
| Cc1noc(-c2ccc(CSCCC(=O)O)cc2)c1NC(=O)OC(C)c1ccccc1Cl (configuration not stated) | – | inconclusive [rising, full curve, poor fit] | inactive | inactive | – | – | – | inactive | inconclusive [inhibitor, single point] | – | inconclusive [rising, full curve, poor fit] | inactive | inconclusive [cytotoxic, partial curve, poor fit] | inconclusive [rising, full curve, poor fit] | – |
| CN1N=C(N)c2cn([C@@H]3O[C@H](COP(=O)(O)O)[C@@H](O)[C@@H]3O)c3ncnc1c23 | – | inconclusive [cytotoxic, partial curve, poor fit] | – | inconclusive [cytotoxic, full curve] | – | inconclusive [cytotoxic, full curve] | – | – | inconclusive [inhibitor, single point] | – | inconclusive [cytotoxic, partial curve] | – | inconclusive [cytotoxic, partial curve, poor fit] | active: 0.0935 µM | – |
| COc1c(N2CCNC(C)C2)c(F)cc2c(=O)c(C(=O)O)cn(C3CC3)c12 (configuration not stated) | inconclusive [inhibitor, single point] and inactive | inconclusive [cytotoxic, partial curve, poor fit] | inactive | – | – | – | – | – | – | – | – | – | inactive | inactive | – |
| COc1nccc(-c2c(-c3ccc(F)cc3)ncn2C2CCNCC2)n1 | – | inconclusive [cytotoxic, partial curve] | inconclusive [cytotoxic, partial curve, poor fit] | inconclusive [rising, partial curve, poor fit] | inactive | – | – | inconclusive [cytotoxic, full curve, poor fit] | inconclusive [inhibitor, single point] | inactive | inconclusive [cytotoxic, partial curve, poor fit] | – | inconclusive [rising, partial curve] | inactive | – |
| N[C@@]1(C(=O)O)CS(=O)(=O)[C@H]2[C@H](C(=O)O)[C@H]21 | – | active: 9.35 µM | – | inconclusive [cytotoxic, partial curve] | – | inconclusive [cytotoxic, partial curve] | – | inconclusive [cytotoxic, partial curve] | inconclusive [inhibitor, single point] | – | inactive | – | inconclusive [cytotoxic, partial curve, poor fit] | inconclusive [cytotoxic, partial curve] | – |
| CCC(C)CCCCC(=O)N[C@@H](CCN)C(=O)NC(C(=O)N[C@H](CCN)C(=O)N[C@@H]1CCNC(=O)C([C@@H](C)O)NC(=O)[C@@H](CCN)NC(=O)[C@@H](CCN)NC(=O)[C@@H](CC(C)C)NC(=O)[C@H](Cc2ccccc2)NC(=O)[C@H](CCN)NC1=O)[C@@H](C)O (stereo partly drawn) ({Octanoyl(6-Me)}-[Dab][ξThr(3R)][dDab][dDab][Dab]F[dL][dDab][dDab][ξThr(3R)]; lactam 4-C) | – | – | inactive | inconclusive [cytotoxic, full curve, poor fit] | – | inactive | – | inconclusive [rising, full curve, poor fit] | – | – | – | – | inconclusive [rising, partial curve, poor fit] | inactive | inconclusive: -33.3% [inhibitor] |
